Test results reported in article PMC12136788.
The other results are listed elsewhere or left out.

T1: UNK ZnF1-3 (human, UniProt Q9C0B0 31-174)
T1 sequence: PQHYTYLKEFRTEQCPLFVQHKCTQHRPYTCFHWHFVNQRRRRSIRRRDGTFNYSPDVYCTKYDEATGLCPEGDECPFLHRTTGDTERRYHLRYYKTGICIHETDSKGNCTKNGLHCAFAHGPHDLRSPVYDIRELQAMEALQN

B1: 43796116_43796236_697_CDS_ENSG00000152242_ENST00000321319|human|control|control (ssRNA)
RNA: GGGAGUUCUACAGUCCGACGAUCUCCUGAAGGGUCUCCUUCUACCGCCGUUUCUGCCUGAGAGGGUUCAUUCUCUUCUGCGGAAGACAACGUAUCUGAAUCAGCCAGGUGACCACUAGAGGAAGGGGAAAGCAUGCAGUGAUUCAACAGAGGAUUGAGCAUCA
B2: 11210982_11213420_465_CDS_ENSG00000130164_ENST00000252444|human|control|control (ssRNA)
RNA: GGGAGUUCUACAGUCCGACGAUCCAUCGCACCUCCAGAACUGAGGAAUGCAGCGGUUGACACGGCCCCCACAGCUGAAGUCCCCGGAUUUGCAGGUGACAGACAAGCACGUCUCCUGGGACUCAUCAGAGCCAUCCUGGCACUCAACAGAGGAUUGAGCAUCA
B3: chr5:80946147:80946148:-_ENSG00000145687_ENST00000505980|hu_mus|motif|central (ssRNA)
RNA: GGGAGUUCUACAGUCCGACGAUCUGUCUGAGCCGAUUUCUGAGCUCCUACAUGGAGCAGAUAUUCAUACACGUAGAGUGCGGACUUCUCCCGGGCCUGGCUGUCGGACGGGACGGCGCUGCUGUUACUCUUGCCUUUGCCGUACAACAGAGGAUUGAGCAUCA
B4: chr1:214815296:214815297:+_ENSG00000117724_ENST00000366955|hu_hu|motif|central (ssRNA)
RNA: GGGAGUUCUACAGUCCGACGAUCAAGUUUUAAUUCCUUAUUUCUUAGCAUAGCUUCUAAUUGCACCAACUGCGCAUUAUAACGGUCGGGAGAAAUUUCUUUAACUUCAAGAUCCAUCUGAGGUUUAAAAUUACAUUGAUUUCUCAACAGAGGAUUGAGCAUCA
B5: chr14:96998876:96998877:+_ENSG00000090060_ENST00000216277|hu_hu|motif|central (ssRNA)
RNA: GGGAGUUCUACAGUCCGACGAUCAUAAAGCUGGCAAGUUCUUGCUACUAGCAUAGCCCAGGAAACACCACCGAGGAAACCGGAUAUAUUGGAAUAGAUGUUGUGGCGUUUGGCCCAUAGUUUGAUAGCUCUCAGAGUUAACCUCAACAGAGGAUUGAGCAUCA
B6: chr6:48548902:48548903:+_ENSMUSG00000052751_ENSMUST00000163452|mus_hu|FALSE|FALSE (ssRNA)
RNA: GGGAGUUCUACAGUCCGACGAUCAGAGAACAGAACAAGGCCCAAUAGGUAGAAAUUAUAGGAAAGCAGAAUUCAUUCAUUAUAAGGAAGGAUUUCUAACAAUUAGAAUUUCUAACAAUUAGAAUCAUCCAGGGCCUCAGGAGGCAACAGAGGAUUGAGCAUCA
B7: chr5:110834802:110834803:-_ENSG00000164211_ENST00000296632|hu_mus|FALSE|FALSE (ssRNA)
RNA: GGGAGUUCUACAGUCCGACGAUCCCACCAACCAACCAAACGAAGGAAAGGGAAACACGUAAGACCAGUGAGGAGCAGAAACAGCAACCCACACGGAAAUGGCAUGCACCACUGAGCGCUGCGUGUUCACACAAACACAAAAUGCAACAGAGGAUUGAGCAUCA
B8: chr22:41363808:41363809:+_ENSG00000100387_ENST00000216225|hu_mus|FALSE|FALSE (ssRNA)
RNA: GGGAGUUCUACAGUCCGACGAUCGUCCAACGGACACACCUGCCUCGUUUUGAGCCAUCGAGAGAUGCAGUGGAAAUGAAAAGCAUGGUUGCAGACUCCCCAUGCAACCGUACACUCUUCGGAAGUAGCUGACGCCUGGUUGGCCAACAGAGGAUUGAGCAUCA
B9: chr2:10942720:10942721:-_ENSG00000143870_ENST00000272227|hu_mus|FALSE|FALSE (ssRNA)
RNA: GGGAGUUCUACAGUCCGACGAUCAAUAACUUCUCUGUUGAAAUUUGAUGGCGUCAACUCGAUGACAUCAUCACUAGAAGAAUACAGACCGCUGACUGCUAGAAAGAAGGUGCAGCUCACCAGACCGAGCACCAGGCGAGCCAUCAACAGAGGAUUGAGCAUCA
B10: 132740746_132740866_469_3pUTR_ENSG00000187239_ENST00000446176|human|control|control (ssRNA)
RNA: GGGAGUUCUACAGUCCGACGAUCUUUCCUCUCCUGUUUCAGUUCCUGAACAUAGCGUGCCAAGUCCACAAUGAUCUGUGAUGCCAUGUUCUCGGAGAUAACUUCAUGCUGCCCUGCGUAAUCAUUCAUUUCGUUCAGGUUGGACAACAGAGGAUUGAGCAUCA
B11: chr7:7679991:7679992:-_ENSG00000106399_ENST00000396682|hu_hu|hu_hu_hu_mus_False|38_38 (ssRNA)
RNA: GGGAGUUCUACAGUCCGACGAUCUGGGAUGAAUCUUUUCCAGCUUCCCCACGAAGCACACGGGCCGGUCGAUAUACUGUGGUAACAUGCUGGCGUUGAUGCGCGACUUGGGGAGCUGCAUUAUGUCCUCCAUGAUUCUGCCGCCAACAGAGGAUUGAGCAUCA
B12: chr2:73747422:73747423:-_ENSMUSG00000018770_ENSMUST00000018914|mus_hu|FALSE|FALSE (ssRNA)
RNA: GGGAGUUCUACAGUCCGACGAUCCUGAGACACACCAUUCUGGGCCCCAUUAAAUACCGUAGAGCCCUCUCCAGUCCUACUAGCCUCUGGUCGAGAUAACACUGAUGCAGAAAUUGGUCUGUAUGCAACUCUGGAUCCAGCUCGCAACAGAGGAUUGAGCAUCA
B13: chr14:89307221:89307222:+_ENSG00000165533_ENST00000346301|hu_mus|hu_hu_hu_mus_False|38_58 (ssRNA)
RNA: GGGAGUUCUACAGUCCGACGAUCUCCUGUUUGGUUAGUGCCAGGGAGCUUCAAAGAUGUGCCAGGGCGUGGGACCUGAGCUAUAGCAUUUUCAUCCAGCAUCAUUUCAGCAAUUCCUUCCUGGUCCACAUCAAUUUCAUCUAUCAACAGAGGAUUGAGCAUCA
B14: chr1:60041781:60041782:+_ENSMUSG00000041040_ENSMUST00000036540|mus_hu|mus_mus_mus_hu_False|1_98 (ssRNA)
RNA: GGGAGUUCUACAGUCCGACGAUCAAGUUUACAAUAGCUCAACUUUAGCAGUAGUGGCAAAUUUUCUUUUAUUUUCCUUCACAAAAGAAAAUCUUUAUAACCCAGUCCUAGUCUUGGACAUAGUGAAAGCUAUAAAUGCCACUGCAACAGAGGAUUGAGCAUCA
B15: chr17:65336665:65336666:-_ENSG00000197170_ENST00000356126|hu_hu|motif|central (ssRNA)
RNA: GGGAGUUCUACAGUCCGACGAUCUAUAUACUGCUUUUAUUAUUGGAAUAUGUUUGUUAGUUGAAUGAAAACAAACAGUAGCGGAAAAGGUUUCAAAUGAUAGAAAAACAUAUCUGGGUAAGUUAUGACACAACUUUUUGUGUACAACAGAGGAUUGAGCAUCA
B16: chr19:32867047:32867048:+_ENSMUSG00000013663_ENSMUST00000013807|mus_hu|FALSE|FALSE (ssRNA)
RNA: GGGAGUUCUACAGUCCGACGAUCAGCACAAAGAUUGUAUAUCUUGUAAUGGUUUUUAUGCUUUGAAUCCAAAAACCUUACUACAUCAUCAAUAUUGUUCCUGUAUACGCCUUCAAGUCUUUCUGCAGGAAAUCCCAUAGCAAUCAACAGAGGAUUGAGCAUCA
B17: chr6:31368937:31368938:+_ENSMUSG00000025609_ENSMUST00000026699|mus_hu|FALSE|FALSE (ssRNA)
RNA: GGGAGUUCUACAGUCCGACGAUCGGGAGGAUAGUUGCUCUCUGAAGACCAUCUUGAAGAUUGGUCAUUUGGUUUGUCCACUAAAAUGUUCUCGGGAAGGUAGGUGGAGGAAAAGGAGCUCCACUUGUGUAGCGCGUAGGGGAGCAACAGAGGAUUGAGCAUCA
B18: 113712620_113712740_1128_3pUTR_ENSMUSG00000003316_ENSMUST00000169020|mouse|control|control (ssRNA)
RNA: GGGAGUUCUACAGUCCGACGAUCGGGACCGAGGAAGGUUUUCCACAUUGCACCGGUAUUUUUUCAAGUCACUCUUACAGGAUUUGGCUAAUGAGUAACUGACUUUAUAAUCCUGGGCAAUGAGCUUCUGGCGUGUAGUUAGUGCAACAGAGGAUUGAGCAUCA
B19: chr7:141441981:141441982:+_ENSG00000106028_ENST00000265304|hu_mus|hu_hu_hu_mus_False|38_78 (ssRNA)
RNA: GGGAGUUCUACAGUCCGACGAUCCUCAUGUCUUACAAACUGACGAAAUACCUGUAAUACAGGUCUUCGAAACAUGGCUUCUGUUUUUCUUACAACCAGUCUAAUCUGCUUUUCCUAAAGGAAAGAAAGAAAAGAGAAAAAUGACAACAGAGGAUUGAGCAUCA
B20: chr9:96978117:96978118:-_ENSMUSG00000032449_ENSMUST00000035024|mus_hu|FALSE|FALSE (ssRNA)
RNA: GGGAGUUCUACAGUCCGACGAUCUUUUUUUUUAAUCUUAACAUGGUAUUCUCUCCUACUCUCUCACCCUCCCCCCCAAAAAAGGCCACAAAGUGCUUUCACGAAGCGUCAUUCUUUUAGAUAAAGCCAUUGCACAAAAUGUACCAACAGAGGAUUGAGCAUCA
B21: chr1:27731043:27731044:-_ENSG00000158195_ENST00000430629|hu_mus|motif|central (ssRNA)
RNA: GGGAGUUCUACAGUCCGACGAUCCAGGUCCCACCUCCCAACCUUUGGGAAGAAAGGGUCUAUUUUUAGACAGUAUUCCCUCGGUGCAUUAGCUAGCAGAAAUCUUGAUAUGGGAAACACCAAGAGCCUAUUGGAAUAGGUCCUCAACAGAGGAUUGAGCAUCA
B22: chrX:147030410:147030411:+_ENSG00000102081_ENST00000218200|hu_mus|motif|central (ssRNA)
RNA: GGGAGUUCUACAGUCCGACGAUCACUUCAUGCCCUGUGCCAUCUUGCCUACUAUUUGUCUUUGGCCUAACAAAGUUUUCGGAAAUGGAGUAAGAAUUACGGAAAUGGUAGAGGAAAUAUAACUUCGGAAUUAUGUAGCUUAUUCAACAGAGGAUUGAGCAUCA

biological target: T1, UNK ZnF1-3; assay: nsRBNS (natural sequence RNA bind-n-seq); RBNS binding buffer (assumed for nsRBNS): 25 mM Tris pH 7.5, 150 mM KCl, 3 mM MgCl2, 0.01% Triton X-100, 500 ug/ml BSA, 20 U/ml SUPERase-In, 4 C; UNK is unkempt and MSI1 is Musashi-1; names of the RNAs are library labels; protein concentration not given here; high values mean tight binding

Binder	binding signal [enrichment R]
B1	0.987
B2	0.9
B3	0.614
B4	0.862
B5	1.15
B6	1.6
B7	1.54
B8	1.24
B9	1.04
B10	0.523
B11	0.489
B12	1.19
B13	1.05
B14	0.472
B15	1.19
B16	0.885
B17	1.81
B18	0.86
B19	0.681
B20	1.21
B21	0.922
B22	1.52
